# Laboratory results published in PubChem BioAssay AID2546 (National Center for Advancing Translational Sciences (NCATS), 2010).
# Hit rate of the full screen: of about 310,000 compounds, about 11,000 (3.5%) were called active. Inconclusive results, whose numbers are uncertain, are shown with a selection of clear calls. The call rests on the fitted dose curve; in most records, active means well fitted inhibition curve with a large enough effect; inconclusive means small, poorly fitted or top-dose-only effect, or effect the other way; inactive means flat fitted curve, though single readings scatter. No potency is given beside an inconclusive call; the fits are too rough.
# Assay: VP16 counterscreen qHTS for inhibitors of ROR gamma transcriptional activity;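 further: Gal4-VP16 expression switched on by copper sulfate through the metallothionein promoter; nearly all actives have a fitted effect of over 50% in size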
# Settings: Drosophila S2 Gal4-VP16 UAS-luciferase, luminescence, 20 h; activity, negative = inhibition: at 53.6 µM (top of the series)
# On the % scale 0 is the no-effect control and ±100 the full control effect; potency means the concentration at half of the fitted maximal effect; tags describe the fitted curve by direction and shape.
Structure (SMILES),Potency,"activity, negative = inhibition"
COc1cccc(C(C)NC(=O)Nc2cccc(C(F)(F)F)c2)c1 (stereo not drawn),active: 35.5 µM,–
COc1ccc([C@@H](C)NC(=O)c2ccc3oc(C(C)C)nc3c2)cc1,"inconclusive [inhibitor, single point]",–
CCCCOc1ccc(N(CC(=O)NC2CCCCC2)C(=O)c2snc(C(N)=O)c2N)cc1,"inconclusive [inhibitor, single point]",–
Cc1ccc(-c2ccc(/C=N\NC(=O)C3C(=O)NCC3c3ccccc3)o2)cc1Cl (stereo not drawn),active: 20 µM,–
c1ccc(COc2ccc(OCCCn3cncn3)cc2)cc1,"inconclusive [inhibitor, single point]",–
CC(C)[C@H](O)C1=CCCCC1=O,inactive,–
COC(=O)c1cccc(CSc2nc3ccccc3[nH]2)c1,"inconclusive [inhibitor, single point]",–
Cc1cc(/C=C(\C#N)C(=O)NCc2ccccc2)cc(C)c1O,–,inactive: -1.64%
C=CCn1c(SCc2ccc(Cl)c(Cl)c2)nnc1C(CO)NC(=O)c1ccc(OC)cc1 (stereo not drawn),"inconclusive [inhibitor, partial curve, poor fit]",–
CN1CCN(C2=C(Cl)C(=O)N(Cc3ccccc3)C2=O)CC1,–,inactive: 0.823%
Clc1ccc(OCc2nc(-c3ccccn3)no2)c(Br)c1,"inconclusive [inhibitor, single point]",–
CC1CCc2c(sc(Nc3nc4c(F)cccc4s3)c2C(N)=O)C1 (stereo not drawn),active: 5.01 µM,–
S=C(Nc1ccc2nsnc2c1)N1CCCC1,active: 11.2 µM,–
Cc1cc(Cl)ccc1OCC(=O)N[C@@H](Cc1ccccc1)c1nc2ccccc2[nH]1,"inconclusive [inhibitor, single point]",–
O=C(CN1CCCCCC1)Nc1ccccc1Oc1ccccc1,–,inactive: 5.26% [at 10 µM]
COCCNC(=O)COc1ccc(C)cc1C(=O)c1cc(C#N)c(=O)n(C2CC2)c1,–,inactive: 4.93%
Cc1ccc(C(=O)Nc2ccc3c(c2)OCO3)cc1S(=O)(=O)N1CCCC1,–,inactive: -12%
Cc1cc(C)c2ccc(C)[n+]([O-])c2c1O,"inconclusive [inhibitor, single point]",–
CC(C1CC1)N(Cc1ccccc1)C(=S)Nc1cccc(C(F)(F)F)c1 (stereo not drawn),"inconclusive [inhibitor, single point]",–

Structure (SMILES),Potency,"activity, negative = inhibition"
COc1ccccc1-c1cc(-c2ccccc2)nc(SC(C(N)=O)c2ccccc2)c1C#N (stereo not drawn),"inconclusive [inhibitor, single point]",–
O=c1ccc2ccc(OS(=O)(=O)O)cc2o1,–,inactive: 7.26%
CC(=O)c1ccc(N2CCN(S(=O)(=O)c3cc4[nH]c(=O)c(=O)[nH]c4cc3C)CC2)cc1,"inconclusive [inhibitor, single point]",–
O=[N+]([O-])c1cccn2cc(-c3ccc(Br)cc3)nc12,–,inactive: -3.91%
C=CCOc1c(Br)cc(/C=N/n2c(CC)n[nH]c2=S)cc1Br,active: 7.94 µM,–
C/C(=N\NC(=S)Nc1c(C)cccc1C)c1ccc(O)cc1,"inconclusive [inhibitor, single point]",–
Cc1ccc(C(=O)N/N=C\C2CC=CCC2)cc1[N+](=O)[O-] (stereo not drawn),"inconclusive [inhibitor, full curve, poor fit]",–
O=C(O)/C(=C\c1ccco1)NC(=O)c1cccc2ccccc12,"inconclusive [inhibitor, single point]",–
O=C(N/N=C/c1ccc([N+](=O)[O-])o1)c1sc2ccccc2c1Cl,active: 3.16 µM,–
COCCCNC(=O)Cc1ccc(-n2c(C)nc3cccnc32)cc1,–,inactive: -6.65%
CCOc1cc(C2Nc3ccccc3C(=O)N2c2ccccc2)c(Br)cc1OCC(=O)O (stereo not drawn),–,inactive: -1.15%
CCOC(=O)c1sc(NC(=O)C(CC)OC(=O)C(CC(C)C)NC(=O)c2ccccc2)nc1C (stereo not drawn),–,inactive: -3.22%
Cc1nc2ccccc2n1C1CCN(CC(=O)NCc2ccc(F)cc2)CC1,"inconclusive [inhibitor, single point]",–
CCN(CC)C(=S)NC(=O)c1ccc(Cl)cc1Cl,active: 1.58 µM,–
C=CCn1c(O)c(N=NC(=O)OCC)c2ccccc21,"inconclusive [activator, single point]",–
COc1ccc(C(=O)NN(C)c2nc(C(F)(F)F)nc3ccccc23)cc1,"inconclusive [inhibitor, single point]",–
Cc1cc(C)c2c(N)c(C(=O)Nc3ccc(F)cc3)sc2n1,–,inactive: -15.6%
COc1cccc(C(=O)CC(=O)C(=O)Nc2cccc([N+](=O)[O-])c2C)c1,"inconclusive [inhibitor, single point]",–
COc1ccccc1/C=C/C(=O)c1c2c(c(C)[nH]c1=O)CCCC2,active: 4.47 µM,–
